Laboratory results from PubChem BioAssay AID1508624 (National Center for Advancing Translational Sciences (NCATS), 2021).
The whole screen tested about 48,000 compounds, of which about 120 (0.25%) were called active. About 4% were inconclusive and are not listed. Calls come from the whole dose curve; as a rule, active = well fitted activation curve with a large enough effect; inconclusive = small, poorly fitted or top-dose-only effect, or another doubt; inactive = no such curve, though single readings can be large or run the other way. This is one part of the list.

Assay: Primary qHTS for Identification of Small Molecule Activators of Huntingtin-Antisense Promoter Activity; note: nearly all actives have a fitted effect of over 55% in size
Details: HEK293 HTT-AS promoter firefly luciferase reporter, 24 h; series mostly up to 57.5 µM; activity change, positive = activation: at the top concentration
Procedure, shortened: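 Firefly luciferase readout (Dual-Glo, 10 min RT) after 24 h, 37 °C compound exposure (final up to 57.5 uM) of HEK293 reporter cells cultured 24 h beforehand; PTC124 at 50 uM final as control inhibitor; activity scaled vehicle 0%, zero RLU -100%.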

Activity change, positive = activation, inactive:
CN(Cc1ccccc1)C(=O)c1cn(C)c2ccc(S(=O)(=O)N(C)C3CCCCC3)cc2c1=O -5.08%
CCOC(=O)c1ccc(N2C(=O)c3n[nH]c(-c4cccs4)c3C2c2ccc(Cl)cc2Cl)cc1 (stereo not given) -77.5%
COc1ccc(/C=C(/C#N)c2nc(-c3ccc(Br)cc3)cs2)cc1 -16.7%
Cc1cc(Br)ccc1NC(=O)C1CCN(S(=O)(=O)c2ccc(Br)s2)CC1 -12.3%
CCOc1ccc(NC(=O)CCS(=O)(=O)c2ccc(Br)cc2)cc1 -18.9%
COc1ccc(NC(=O)c2c(C)oc3ccc(O)c(CN4CCN(Cc5ccccc5)CC4)c23)cc1 -13%
Cc1cccc(Cn2c(SCc3ccc(C(=O)NC4CCCCC4)cc3)nc3ccncc32)c1 -1.99%
CCC(=O)N1CCc2cc(S(=O)(=O)CCC(=O)NCc3cccc(OC)c3)ccc21 -15.9%
Cn1ncc(C(=O)N2CCN(c3ccccc3F)CC2)c1C1CCN(C(=O)OC(C)(C)C)CC1 -11.8%
Cc1cc(SCC(=O)NCc2ccc(F)cc2)nc(=O)[nH]1 2.61%
CC(=O)c1ccc(NC(=O)CSc2nccn2Cc2ccc3c(c2)OCO3)cc1 -12.3%
CCCCN(CC)CCCNC(=O)c1cn(CC)c2ccc(S(=O)(=O)N3CCOCC3)cc2c1=O -10.4%
O=C(COCc1cc(-c2ccco2)on1)Nc1cccc(Cl)c1Cl -6.72%
Cc1ccc(NC(=O)CSc2nc(-c3ccco3)cc(C(F)(F)F)n2)cc1C -28.9%
CCOc1ccccc1-n1nnc(S(=O)(=O)c2ccc(C)cc2)c1N -25.3%
COc1ccc(C2N3CC4(C)CN2CC(c2ccccc2)(C3)C4=O)cc1 (stereo not given) 1.34%
COC(=O)Nc1nc2ccc(S(=O)c3ccccc3)cc2[nH]1 (stereo not given)
CCOc1ccc(NC(=O)c2oc3ccccc3c2NC(=O)Cc2cccc(C)c2)cc1 -2%
COc1ccc(OC)c(NS(=O)(=O)c2ccc(Br)s2)c1 -30.6%
CCn1cc(C(=O)O)c(=O)c2cc3c(cc21)OCO3 -14.5% [at 25.1 µM, percent change from vehicle, -100% = no light]
O=C(Nc1ncc(SCCN2CCCC2)s1)[C@]1(c2ccc(S(=O)(=O)C3CC3)cc2)C[C@@H]1C1CCCCC1 -18.6%
CCC(C(=O)OCCN(CC)CC)c1ccccc1 (stereo not given) -2.06%
CC(C)c1ccc(NC(=O)CCNS(=O)(=O)c2cccc3nsnc23)cc1 -20.7%
COc1ccc(C(=O)Oc2ccc(C(c3c(C)[nH][nH]c3=O)c3c(C)[nH][nH]c3=O)cc2OC)cc1 0.979%
CN1CCN(CCC(=O)Nc2ccc(Cl)cc2)CC1 -13.7%
CCCN1C(C(=O)c2ccccc2)=C(OC(=O)c2ccc(C)cc2)c2ccccc2S1(=O)=O -35.5%
Cc1ccc(NC(=O)Cn2c(=O)ccc3cc(S(=O)(=O)N4CCC(C)CC4)ccc32)cc1C -37.3%
Cc1cccc(NC(=O)CSc2nc(=O)n(Cc3cccnc3)c3c2CCC3)c1 -38.5%
COc1cc(Cl)c(C)cc1NC(=O)c1cc2c(s1)-c1c(C)cccc1OC2 1.37%
Cc1cc(=O)oc2cc(O[C@@H]3SC[C@@H](O)[C@H](O)[C@H]3O)ccc12 1.95%
O=C(Cn1c(=O)nc(-c2ccccc2)c2cc(Cl)ccc21)NCCc1ccccc1 2.24%
CCc1nn(CC(=O)N2CCN(c3cccc(C)c3C)CC2)c(=O)c2cc3sccc3n12 -7.01%
CCC(=O)N1CCc2cc(S(=O)(=O)NC(CC(C)C)C(=O)NCc3ccc(C)cc3)ccc21 (stereo not given) -3.13%
Cc1ccc(O)c(-c2n[nH]c3c2C(c2ccccc2F)N(Cc2ccco2)C3=O)c1 (stereo not given) -39.4%
Cc1cc2[nH]c(=O)c(=O)[nH]c2cc1S(=O)(=O)Nc1cccc(C(F)(F)F)c1 -23%
Cc1sc2ncn(CC(=O)N3CCN(c4ccc(F)cc4)CC3)c(=O)c2c1S(=O)(=O)N1CCN(c2ncccn2)CC1 -19.4%
CCOc1ccc(NC(=O)CN2CCN(c3ccc(Cl)cc3)CC2)cc1 -18.5%
O=C(c1cc(F)cc(F)c1)N1CCC(c2nc(-c3ccc(S(=O)(=O)N4CCCC4)cc3)no2)CC1 -11.8%
COc1ccc(OC)c(CCNC(=O)c2cc3c(=O)n(C)c4ccccc4c3n2C)c1 -10.8%
CCc1cccc(NC(=O)CCN2C(=O)c3ccccc3Sc3ncccc32)c1 -25.6%
COc1ccc(CN(C(=O)Cc2coc3ccc(C)cc23)C2CCS(=O)(=O)C2)cc1 (stereo not given) -12.2%
CCOC(=O)c1cccc(NC(=O)C2CCCN(S(=O)(=O)c3cc(Br)cc4c3N(C(=O)CC)CC4)C2)c1 (stereo not given) -15.8%
Cc1cc(=O)n2nc(N(C)CC(=O)NCc3ccc(Cl)cc3)sc2n1 -12.8%
O=C(NCC1CCN(Cc2ccc(F)cc2)CC1)c1cc2ccc3cccnc3c2[nH]1 -17.7%
CCOc1ccc(NC(=O)Cn2c(=O)oc3cc(S(=O)(=O)N4CCC(C)CC4)ccc32)cc1 -48.7%
COc1cc(NC(=O)CC(C)S(=O)(=O)c2cc3c4c(c2)CCN4C(=O)CC3)cc(OC)c1 (stereo not given) 11.3%
Cc1ccccc1C(=O)Nc1cccc(C(=O)OCc2cc(=O)n3nc(C4CC4)sc3n2)c1 27.8%
COc1ccc(Cn2c(CO)cnc2SCC(=O)NCc2ccco2)cc1 -11.6%
Cc1ccc(C)c(CN2C(=O)c3ccccc3Sc3ccc(C(=O)NCc4ccc5c(c4)OCO5)cc32)c1 -19.7%
COc1cc2nc(SCC(=O)Nc3cccc(C)c3)n3nc(-c4ccccc4)nc3c2cc1OC -11%
COc1ccc(NC(=O)c2c(NC(=O)c3cccc(C)c3)sc3c2CCCC3)cc1 -15%
Cc1ccc([N+](=O)[O-])cc1S(=O)(=O)N1CCn2cccc2C1c1ccc(F)c(F)c1 (stereo not given) -19.3%
CC(=O)c1cccc(NC(=O)c2ccc3nc(C(C)C)oc3c2)c1 -4.69%
COc1ccc(-c2nc(Cn3c(SCc4ccc(F)cc4)nc4cccnc43)c(C)o2)cc1 -29%
Cc1ccccc1NC(=O)Nc1cccs1 5.56%
O=C1c2oc3ccccc3c(=O)c2C(c2cccc(Br)c2)N1c1ccccn1 (stereo not given) -7.47%
CCCCN(C)C(=O)Cn1cnc2sc(C)c(S(=O)(=O)N3CCN(c4ccccc4OC)CC3)c2c1=O 15.9%
CCn1ccnc1CC1COc2ccccc2O1 (stereo not given) 12.2%
CNC(=O)c1ccc(NC(=O)COc2ccc(-c3nn(C)c(=O)c4ccccc34)cc2)cc1 -24.3%
Cc1ccc(OCC(=O)N(Cc2sccc2C)C2CCS(=O)(=O)C2)cc1 (stereo not given) -4.55%
CCOC(=O)c1[nH]c2ccccc2c1NC(=O)c1cc(OCC)c(OCC)c(OCC)c1 -13.7%
Cc1ccc2onc(CC(=O)N3CCN(c4cccc(C)c4C)CC3)c2c1 -32.5%
Cc1cc(=O)n2nc(N3CCC(C(=O)NCc4ccc(Cl)cc4)CC3)sc2n1 -7.05%
CCOc1ccc(NC(=O)Cn2c(CCC(=O)O)ccc2-c2ccc(C)cc2)cc1 -8.02%
COc1ccc(-c2noc(CSc3nnc(-c4ccncc4)n3-c3ccc(C)c(C)c3)n2)cc1 -30.7%
Clc1ccc(Nc2nc(-c3ccccc3)c3cc(Cl)ccc3n2)cc1 -26.7%
COc1ccc(Cl)cc1NC(=O)Cn1cc(S(=O)(=O)Cc2cccc(Cl)c2)c2ccccc21 -22.1%
CCc1ccccc1Nc1nn2c(=O)c3ccc(C(=O)NCc4ccccc4Cl)cc3nc2s1 -32.4%
CCCCOc1ccc(C(=O)N(Cc2nc(-c3ccc(Cl)cc3)no2)C(C)C)cc1 -20.8%
Cc1ccc(Cn2c(C)c(CNCc3ccc(OC(C)C)cc3)c(C(=O)O)c2C)cc1 -25.6%
COc1ccc(CC(=O)NCCc2sc(-c3cccc(F)c3)nc2C)cc1 -29.7%
CC(C)=CCC/C(C)=C/CO 0.0864%
Cn1c(=O)oc2cc(S(=O)(=O)N3CCC(C(=O)N4CCN(c5cccc(Cl)c5)CC4)CC3)ccc21 -42.9%
CCOc1ccc(CCNC(=O)c2ccc(CS(=O)Cc3ccc(Cl)cc3)o2)cc1 (stereo not given) -24.1%
CN1CCc2c(sc3c2C(=O)NC(c2ccc(OC(=O)c4ccc(Cl)cc4)cc2)N3)C1 (stereo not given) 6.66%
CC(=O)N1CCc2cc(Br)cc(S(=O)(=O)CCC(=O)NCCc3ccc(Cl)cc3)c21 -20.2%
Cc1ccc(CSc2nc3c(c(=O)[nH]2)C(c2cccc(F)c2F)CC(=O)N3)cc1 (stereo not given) -17.5%
COc1ccc(N2CCN(C(=O)c3nn(-c4ccc(C)cc4)c(=O)n(C)c3=O)CC2)cc1 -17%
COc1cccc(CNC(=O)CN(C)S(=O)(=O)c2ccc3c(c2)c(=O)n(C)c(=O)n3C)c1 -22.5%
CC(C)c1ccc(NC(=O)C(Cc2ccccc2)NS(=O)(=O)c2ccc3c(c2)CCC(=O)N3)cc1 (stereo not given) -22.8%
Cn1nnnc1SCCNCc1ccccc1Cl -4.99%
COc1cc2ncc3c(-c4ccccc4)nn(-c4ccc(C)cc4)c3c2cc1OC -10.6%
O=C(O)[C@@H](c1ccc(OCc2ccc3ccccc3n2)cc1)C1CCCC1 14%
Cc1ccc(OCC(=O)Nc2ccc3nc(SCC(=O)N(C)c4ccccc4)sc3c2)cc1 -42.6%
COc1ccc(NC(=O)c2sc3nc[nH]c(=O)c3c2C)cc1OC 3.67%
Cc1ccc2c(=O)cc(C(=O)Nc3nc4ccc(Cl)cc4s3)oc2c1 -8.17%
O=C(Nc1ccc(C(=O)OCc2cc(=O)n3c4c(sc3n2)CCCC4)cc1)c1cccc(F)c1 3.6%
Cc1cccc(C(=O)Nc2ccccc2OCc2cc(=O)n3c(C)csc3n2)c1 -12.4%
COc1ccc(CCNc2nc3c(c(=O)n(C)c(=O)n3C)n2Cc2ccccc2Cl)cc1OC -10.6%
O=C(Cn1cc(S(=O)(=O)Cc2ccccc2F)c2ccccc21)NCc1ccccc1 -14.4%
Cc1csc2nc(-c3cccc(NC(=O)c4c(F)cccc4F)c3)cn12 -12.5%
CCOc1ccc(Nc2c3c(nc4nncn24)CCC3)cc1 -32.9%
COc1cc(OC)cc(N2C(=O)CSC23C(=O)Nc2ccccc23)c1 (stereo not given) -0.738%
COc1ccc(C(=O)OCc2cc(=O)n3nc(C4CC4)sc3n2)cc1OC -20.3%
O=C(Nc1ccc(S(=O)(=O)N(Cc2ccccc2)c2ccccc2)cc1)c1ccc(F)cc1 -38.1%
